No constants are given. Whether binding was seen depends on the method and setting. For some assays here: Binding seen in cells or lysates may run through a third protein. Some binding calls cover weakened binding; strength is not graded here.
Assays:
[1] = biological target: T1, peptide mimicking loop II of Lystar5 (Asterias rubens); assay: pull-down; affinity extraction: Lystar5 or loop I or II (1 mg/mL) coupled to NHS Flexibind magnetic beads, incubated 1 h in TBS with the pre-cleared membrane fraction of PBMCs; washes with TBS, TBS + 1 M NaCl + 0.5% Triton X-100, TBS + 0.5% Triton X-100; Western blotting; only the target purified
T1 sequence (peptide, C-terminal amide): GCQVIYSTERGKLRIDCG

Protein sequences, listed by entry. Tags and fused reporters are not part of them. Lines headed by an entry give the natural chain unless they say otherwise; changes in a name come on top. Residues count along the entry.
UniProt P32297, residues 32-505: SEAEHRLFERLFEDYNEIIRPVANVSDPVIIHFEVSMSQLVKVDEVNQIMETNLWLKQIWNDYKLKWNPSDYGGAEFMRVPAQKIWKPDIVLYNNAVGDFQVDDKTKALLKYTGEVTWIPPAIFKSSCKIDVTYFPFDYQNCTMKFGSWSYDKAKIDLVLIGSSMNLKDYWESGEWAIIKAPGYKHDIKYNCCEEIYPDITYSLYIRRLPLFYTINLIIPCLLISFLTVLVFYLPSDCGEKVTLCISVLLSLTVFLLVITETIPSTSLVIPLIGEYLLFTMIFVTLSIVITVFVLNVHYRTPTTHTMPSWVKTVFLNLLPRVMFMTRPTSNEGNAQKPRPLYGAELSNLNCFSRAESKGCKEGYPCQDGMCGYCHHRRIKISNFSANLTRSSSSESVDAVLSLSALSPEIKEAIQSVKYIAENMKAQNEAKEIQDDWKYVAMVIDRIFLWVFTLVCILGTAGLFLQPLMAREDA
UniProt P43681, residues 27-627: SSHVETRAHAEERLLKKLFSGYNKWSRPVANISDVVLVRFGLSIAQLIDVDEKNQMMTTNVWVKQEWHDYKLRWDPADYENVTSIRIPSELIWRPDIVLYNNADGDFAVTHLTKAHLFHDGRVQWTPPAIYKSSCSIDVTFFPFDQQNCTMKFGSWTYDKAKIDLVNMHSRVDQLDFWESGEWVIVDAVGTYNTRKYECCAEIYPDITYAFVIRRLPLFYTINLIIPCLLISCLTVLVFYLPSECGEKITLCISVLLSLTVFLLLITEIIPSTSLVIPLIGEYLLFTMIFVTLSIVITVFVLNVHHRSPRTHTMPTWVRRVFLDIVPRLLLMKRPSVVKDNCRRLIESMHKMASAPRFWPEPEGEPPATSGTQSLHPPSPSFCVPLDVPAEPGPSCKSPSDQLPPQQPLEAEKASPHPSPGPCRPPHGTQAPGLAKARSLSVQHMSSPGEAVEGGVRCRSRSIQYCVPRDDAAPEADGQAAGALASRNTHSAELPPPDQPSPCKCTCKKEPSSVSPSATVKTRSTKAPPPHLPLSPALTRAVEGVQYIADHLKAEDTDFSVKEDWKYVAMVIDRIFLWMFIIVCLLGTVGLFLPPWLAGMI
UniProt P36544, residues 23-502: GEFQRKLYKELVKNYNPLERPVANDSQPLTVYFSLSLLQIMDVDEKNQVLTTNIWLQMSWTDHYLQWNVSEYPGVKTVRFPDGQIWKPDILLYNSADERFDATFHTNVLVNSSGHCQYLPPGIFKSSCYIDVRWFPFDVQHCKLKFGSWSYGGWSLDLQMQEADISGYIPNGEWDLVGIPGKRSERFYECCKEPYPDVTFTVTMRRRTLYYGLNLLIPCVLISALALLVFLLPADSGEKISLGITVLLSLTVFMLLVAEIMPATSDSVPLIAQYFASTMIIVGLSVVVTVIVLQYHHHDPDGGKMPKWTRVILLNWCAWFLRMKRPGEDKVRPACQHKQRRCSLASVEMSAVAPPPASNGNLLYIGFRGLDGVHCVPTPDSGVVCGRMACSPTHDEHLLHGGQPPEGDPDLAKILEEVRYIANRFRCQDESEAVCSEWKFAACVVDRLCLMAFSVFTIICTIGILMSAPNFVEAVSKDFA
UniProt P05556: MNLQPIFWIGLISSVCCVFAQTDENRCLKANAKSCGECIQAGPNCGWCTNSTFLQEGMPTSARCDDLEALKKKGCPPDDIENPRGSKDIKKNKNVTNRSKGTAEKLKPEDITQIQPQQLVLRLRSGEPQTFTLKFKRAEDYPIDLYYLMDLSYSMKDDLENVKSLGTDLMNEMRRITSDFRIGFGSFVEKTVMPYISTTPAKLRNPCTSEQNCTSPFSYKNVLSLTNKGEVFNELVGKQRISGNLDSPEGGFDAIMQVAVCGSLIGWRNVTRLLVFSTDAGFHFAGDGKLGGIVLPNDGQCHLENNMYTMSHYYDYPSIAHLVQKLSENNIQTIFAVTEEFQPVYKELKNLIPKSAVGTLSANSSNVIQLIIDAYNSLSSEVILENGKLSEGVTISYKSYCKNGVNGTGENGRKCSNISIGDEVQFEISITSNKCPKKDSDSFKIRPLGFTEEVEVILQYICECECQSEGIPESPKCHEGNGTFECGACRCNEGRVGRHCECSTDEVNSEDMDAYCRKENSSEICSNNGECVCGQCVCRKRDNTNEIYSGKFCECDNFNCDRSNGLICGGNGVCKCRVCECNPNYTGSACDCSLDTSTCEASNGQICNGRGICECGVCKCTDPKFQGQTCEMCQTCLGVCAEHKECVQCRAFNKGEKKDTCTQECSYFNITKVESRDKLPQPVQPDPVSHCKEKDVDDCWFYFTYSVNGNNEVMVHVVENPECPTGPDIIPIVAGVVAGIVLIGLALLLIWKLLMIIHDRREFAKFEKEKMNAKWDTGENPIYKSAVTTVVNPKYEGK
UniProt P17787, residues 26-502: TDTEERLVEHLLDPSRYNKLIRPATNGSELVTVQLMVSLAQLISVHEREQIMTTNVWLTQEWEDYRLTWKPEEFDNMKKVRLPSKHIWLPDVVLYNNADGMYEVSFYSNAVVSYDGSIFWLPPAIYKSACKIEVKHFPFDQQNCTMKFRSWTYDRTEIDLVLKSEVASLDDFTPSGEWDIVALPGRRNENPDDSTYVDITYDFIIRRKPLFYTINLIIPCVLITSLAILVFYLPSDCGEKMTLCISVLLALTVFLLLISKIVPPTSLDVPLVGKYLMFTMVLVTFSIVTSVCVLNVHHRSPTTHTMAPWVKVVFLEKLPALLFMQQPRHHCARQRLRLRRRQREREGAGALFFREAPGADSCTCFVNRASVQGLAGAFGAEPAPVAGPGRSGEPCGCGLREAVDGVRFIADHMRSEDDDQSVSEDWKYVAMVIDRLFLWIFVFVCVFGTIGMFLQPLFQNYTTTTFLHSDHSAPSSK

[2] = biological target: T2, peptide mimicking loop I of Lystar5 (Asterias rubens); assay: pull-down; affinity extraction: Lystar5 or loop I or II (1 mg/mL) coupled to NHS Flexibind magnetic beads, incubated 1 h in TBS with the pre-cleared membrane fraction of HaCaT keratinocytes; washes with TBS, TBS + 1 M NaCl + 0.5% Triton X-100, TBS + 0.5% Triton X-100; Western blotting; only the target …
T2 sequence (peptide, C-terminal amide): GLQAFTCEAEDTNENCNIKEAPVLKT

[3] = biological target: T1, peptide mimicking loop II of Lystar5 (Asterias rubens); assay: as above
[4] = biological target: α3 nAChR subunit (human (endogenous in HaCaT keratinocytes and PBMCs)) (UniProt P32297); assay: ELISA; antibodies to α3, α4, α7 or β2 nAChR subunits immobilised in ELISA wells, incubated 2 h with the membrane fraction of HaCaT cells; bound integrin subunits detected by anti-integrin antibodies (the methods call it immunoprecipitation)
[5] = biological target: α4 nAChR subunit (human (endogenous in HaCaT keratinocytes and PBMCs)) (UniProt P43681); assay: as above

Substance	binding [1]	binding [2]	binding [3]	binding [4]	binding [5]
α4 nAChR subunit (from UniProt P43681 27-627) (receptor)	binds	binds	binds		
α7 nAChR subunit (from UniProt P36544 23-502) (receptor)	no binding	no binding	no binding		

Now from value to substance:

binding [1]	binding [2]	binding [3]	binding [4]	binding [5]	Substance
binds	binds	binds			α3 nAChR subunit (from UniProt P32297 32-505) (receptor)
binds	binds	binds	no binding	binds	β1 integrin subunit (from UniProt P05556 21-798) (receptor)
binds	binds	binds			β2 nAChR subunit (from UniProt P17787 26-502) (receptor)
